In paper PMC4336329 (PLoS ONE, 2015):
In all, about 310,000 compounds went through this assay and about 14,000 (4.5%) showed an effect of 50% or more. Effects have a minus sign here. Some of the results follow.

biological target: human ether-à-go-go-related gene (hERG) potassium channel (human, UniProt Q12809); experiment: primary screen, population patch clamp on CHO cells stably expressing hERG
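Further: peak tail current of the secondary pulse compared with the same well before compound.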

Chain of human ether-à-go-go-related gene (hERG) potassium channel (Q12809 whole entry, looked up): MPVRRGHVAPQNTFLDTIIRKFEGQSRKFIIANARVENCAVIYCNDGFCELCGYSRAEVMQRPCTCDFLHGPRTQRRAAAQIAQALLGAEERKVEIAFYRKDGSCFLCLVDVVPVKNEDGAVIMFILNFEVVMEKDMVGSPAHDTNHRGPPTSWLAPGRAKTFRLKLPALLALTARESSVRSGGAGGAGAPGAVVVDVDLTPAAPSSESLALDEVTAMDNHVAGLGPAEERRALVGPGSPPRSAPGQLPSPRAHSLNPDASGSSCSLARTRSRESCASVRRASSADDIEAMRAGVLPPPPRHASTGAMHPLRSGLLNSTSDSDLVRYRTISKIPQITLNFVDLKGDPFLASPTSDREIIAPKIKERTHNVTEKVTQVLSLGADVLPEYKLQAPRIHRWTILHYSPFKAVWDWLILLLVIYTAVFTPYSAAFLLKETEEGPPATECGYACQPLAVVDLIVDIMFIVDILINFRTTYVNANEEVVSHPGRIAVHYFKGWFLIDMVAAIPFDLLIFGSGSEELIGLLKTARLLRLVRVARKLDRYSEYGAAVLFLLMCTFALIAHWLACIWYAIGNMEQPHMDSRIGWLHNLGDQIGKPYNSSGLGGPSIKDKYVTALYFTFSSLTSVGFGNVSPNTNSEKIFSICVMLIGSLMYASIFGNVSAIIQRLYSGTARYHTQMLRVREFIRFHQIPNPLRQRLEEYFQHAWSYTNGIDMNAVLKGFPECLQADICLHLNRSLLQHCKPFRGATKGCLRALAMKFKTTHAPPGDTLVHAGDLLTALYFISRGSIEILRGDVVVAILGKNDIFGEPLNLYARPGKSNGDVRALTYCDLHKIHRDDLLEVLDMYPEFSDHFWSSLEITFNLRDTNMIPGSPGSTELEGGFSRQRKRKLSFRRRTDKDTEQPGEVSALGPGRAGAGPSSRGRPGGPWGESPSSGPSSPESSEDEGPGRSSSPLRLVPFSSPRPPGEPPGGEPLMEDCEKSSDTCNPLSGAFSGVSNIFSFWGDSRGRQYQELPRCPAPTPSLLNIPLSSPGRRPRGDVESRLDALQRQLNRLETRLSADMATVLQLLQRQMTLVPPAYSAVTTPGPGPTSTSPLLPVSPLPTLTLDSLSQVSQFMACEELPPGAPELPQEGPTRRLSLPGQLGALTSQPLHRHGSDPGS

Point of comparison: `CCOc1ccc(CN2CCNC(=O)C2CC(=O)NC2CCCCCC2)cc1` (centres unmarked), “hERG current change (%, negative = inhibition) at 10uM” value -32.2%. Against it:
- O=C(N/N=C/c1cccc(O)c1)c1ccc(NC(=O)c2cccc([N+](=O)[O-])c2)cc1 — higher, 15.7%
- CCCN(CC(=O)Nc1ccccc1OC)C(=O)c1ccc2[nH]c3c(c2c1)CC(C)CC3 (centres unmarked) — higher, -3.74%
- CCNC(=S)N/N=C/c1cn(Cc2ccccc2F)c2ccccc12 — higher, 5.02%
- CCC1Sc2ccccc2N(CC(=O)NCCC2=CCCCC2)C1=O (centres unmarked) — higher, -0.692%
- C=C1CCN(c2ccc(C(=O)NCCC)cc2[N+](=O)[O-])CC1 — lower, -48.3%
- CCCc1cc(C(=O)N2CCCC(Cc3cccc(Cl)c3)(C(=O)OCC)C2)n(C)n1 (centres unmarked) — higher, -20.4%
- COc1ccccc1NC(=O)c1ccc2c(c1)N(CC#N)C(=O)C(C)(C)O2 — higher, -1.23%
- C#CCNC(=O)C1=C[C@H](c2ccc(C(F)(F)F)cc2)[C@@H](CCCO)[C@H](OCC)O1 — higher, -25%
- CCCCS(=O)(=O)N1CCN(S(=O)(=O)c2cccs2)CC1 — higher, 12.1%
- CCc1ccc(N2C(=O)CC(N3CCN(Cc4ccc5c(c4)OCO5)CC3)C2=O)cc1 (centres unmarked) — higher, -26.4%
- CN(C)/C=C/C(=O)c1nnn(C2CCCCC2)c1NC1CCCCC1 — lower, -46.4%
- CSc1n[nH]c2nc3c(c(=O)n12)C1(CCCCC1)Cc1ccccc1-3 — higher, -13%
- O=C(O)c1cc(Cl)c(Cl)cc1C(=O)Nc1cccc2cccnc12 — higher, 10.7%
- COc1ccc(OC)c(NC(=O)CNC(=O)Cn2cnc3ccccc3c2=O)c1 — higher, 5.82%
- CC(C)n1cc(CN2CCCC(CNS(=O)(=O)c3cccc4cccnc34)C2)cn1 (centres unmarked) — higher, -0.6%
- CN(C)c1ccc2c3c(ccc(N(C)C)c13)C(=O)OC2 — lower, -59.1%
- c1ccc2oc(-c3[nH]ncc3CN(Cc3ccncc3)CC3CCCO3)cc2c1 (centres unmarked) — higher, -22.6%
- COc1ccc(NC(=O)C(=O)N/N=C\c2ccc(CNC(=O)C(=O)Nc3ccc(C)c(C)c3)o2)c(OC)c1 — higher, 9.12%
- Cn1c(SCc2ccc(Cl)cc2Cl)nc(C(F)(F)F)cc1=O — higher, 12.4%
- CC(=O)OC(C(=O)NC1CCCCC1)c1cccc(C)c1 (centres unmarked) — higher, 1.79%
- Cc1ccc(C2=NS(=O)(=O)N(C)C(C(=O)NCc3ccccn3)=C2)cc1 — higher, -22.6%
- COc1cc(NC(=O)N[C@H](C(=O)O)C(C)C)cc(OC)c1 — higher, 4.74%
- Nc1ccc(S(=O)(=O)Nc2ccc(C(=O)c3ccccc3)cc2)cc1 — higher, -2.92%
- COc1ccc(C(=O)NC(=S)NNC(=O)Cc2cccs2)cc1 — higher, 17%
- O=C(CSc1nnc(CNC(=O)c2c(F)cccc2Cl)o1)NCc1ccccc1 — higher, 9.37%
- Cc1cccc(N2CCN(C(=O)/C=C/c3cccs3)CC2)c1C — higher, -23.9%
- Cc1ccc(S(=O)(=O)NC2c3cccc4cccc(c34)C2Sc2ncccn2)cc1 (centres unmarked) — higher, 0.979%
- O=C(O)c1ccc2c(c1)C(=O)N(c1cccc3ccccc13)C2=O — higher, -11.4%
- COc1ccc(N2CCN(C(CNC(=O)OCc3ccccc3)c3ccco3)CC2)cc1 (centres unmarked) — higher, -27.4%
- Cc1nn(Cc2ccccc2Cl)c(C)c1C(=O)OCC(=O)NC1CCCC(C)C1C (centres unmarked) — higher, 5.15%
- CC(=O)c1ccc(NC(=O)C(C)OC(=O)c2cccc(-n3cnnn3)c2)cc1 (centres unmarked) — higher, -13.7%
- C[C@@H](C(=O)NCCc1c[nH]c2ccccc12)[C@H]1C[C@]1(C)[C@H](NC(=O)OCc1ccccc1)c1ccccc1 — higher, -3.24%
- CN(C)S(=O)(=O)c1ccc(Cl)c(NC(=O)CSc2nc3c(cc2C#N)C(=O)CC(C)(C)C3)c1 — lower, -65.3%
- Cc1noc(C)c1S(=O)(=O)NC1CCN(Cc2ccccc2)CC1 — higher, 3.28%
- COc1ccc(N(C(=O)CNC(=O)c2ccco2)C(C(=O)NCC2CCCO2)c2ccc(OC)c(OC)c2)cc1 (centres unmarked) — higher, 24.5%
- CCc1ccc(CNC(=O)CCCC(=O)n2nc(C)c3ccccc32)cc1 — higher, 16.9%
- C[C@@H]1CC[C@@]2(O[C@H](CCO)C[C@@H](O)[C@@H]2O)O1 — higher, 7.47%
- CCOC(=O)CCC(=O)c1c(C)oc2ccc(OC)cc12 — lower, -57.2%
- Cc1c(N2C(=O)c3ccc4c5c(ccc(c35)C2=O)CC4)c(=O)n(-c2ccccc2)n1C — higher, 9.84%
- COc1ccc(CCn2c(-c3cc([N+](=O)[O-])cc([N+](=O)[O-])c3)nc3nc4ccccc4nc32)cc1 — higher, -9.44%
- COc1ccccc1/C=C/C=N/n1c(-c2ccco2)n[nH]c1=S — higher, 19.6%
- Nc1ccccc1-c1nc2ccccc2[nH]1 — higher, -21.1%
- Cn1nccc1C(=O)N1CCCC(C(=O)c2ccc(Oc3ccccc3)cc2)C1 (centres unmarked) — higher, -25.5%
- Cc1noc(C)c1CSc1nc2cc(S(=O)(=O)N3CCOCC3)ccc2o1 — higher, -19.9%
- COc1ccccc1NC(=O)C1CCOC1=O (centres unmarked) — higher, 15.4%
- CC[C@@]12C(=O)N(c3ccccc3)C(=O)N1[C@H](c1cccc(C)c1)[C@@H]1C(=O)N(Cc3ccccc3)C(=O)[C@@H]12 — higher, 14.7%
- Cc1ccc2nnn(Cc3cccc(C(C)(C)C)c3O)c2c1 — higher, 8.03%
- O=C(N/N=C1/SCC(=O)N1Cc1ccco1)c1ccccc1F — higher, 20.1%
- CC1CCCC(C)N1CCCNC(=O)Cn1ncc2c3ccccc3n(C)c2c1=O (centres unmarked) — lower, -36.9%
- COc1ccccc1CCC(=O)N1CCN(C(=O)c2ccccc2)CC1 — higher, 3.26%
- O=C(CCCC(=O)N(c1ccc2c(c1)OCCO2)C(C(=O)NC1CCCCC1)c1ccc(F)cc1)Nc1ccccn1 (centres unmarked) — higher, 10%
- CC(C)(C)C(=O)Nc1ccc(NC(=O)C(C)(C)C)cc1 — higher, -6.63%
- C=CCc1cccc2cc(C(=O)O)c(=O)oc12 — higher, -4.02%
- CCN1CCN(c2ccc(S(=O)(=O)N3CCOCC3)cc2NC(=O)C(C)Oc2ccc(Cl)cc2)CC1 (centres unmarked) — lower, -70.9%
- COc1cccc(N=C2SC(CC(=O)Nc3ccccc3)C(=O)N2Cc2ccccn2)c1 (centres unmarked) — lower, -38.6%
- Cc1ccc(Sc2nnc(Cc3ccccc3)c3ccccc23)cc1 — higher, 19.5%
- Fc1ccccc1-c1nc(NC2CCCC2)c2ccccc2n1 — higher, -27.9%
- Cc1nn(-c2ccccc2)c2c1C(c1cccc([N+](=O)[O-])c1)N(c1ccccc1)C(=O)N2 (centres unmarked) — higher, 11.1%
- O=C(CCC1CCCCC1)NC1=NCCS1 — higher, -3.08%
- Cc1ccc(CNC(=O)c2cc3c(=O)n4ccccc4nc3n(CC3CCCO3)c2=N)cc1 (centres unmarked) — lower, -81.3%
- Cc1cc(-c2nnc(-c3cccc(Cl)c3)o2)no1 — higher, -7.16%
- Cc1nn(-c2ccccc2)c(C)c1NC(=O)COC(=O)c1ccc(O)cc1O — higher, -11.7%
- O=[N+]([O-])c1ccc(/C=N/Nc2nc(NCc3ccccc3)nc(N3CCOCC3)n2)cc1 — higher, -3.91%
- O=C(CNCC1CCCO1)Nc1ccc([N+](=O)[O-])cc1C(=O)Nc1ccccc1F (centres unmarked) — lower, -39.7%
- N=C1C(c2nc3ccccc3[nH]2)=C(O)CN1NC(=O)c1c[nH]c2ccccc12 — higher, 17%
- O=C(c1cccs1)N1CCN(C(=O)C(c2ccccc2)c2ccccc2)CC1 — higher, -30.6%
- O=C(NCc1ccccc1)C(=O)Nc1nccs1 — higher, 2.61%
- CC(=O)c1ccc(NC(=O)c2onc(C)c2Cl)cc1 — higher, 11.8%
- COc1ccc(NC(=O)CSC2=C(C#N)C(c3ccco3)C(C(=O)Nc3nc4ccccc4s3)=C(C)N2)cc1 (centres unmarked) — higher, 22.6%
- CCn1ncc(Br)c1C(=O)Nc1ccc(-c2ccno2)cc1 — higher, 20.5%
- O=C(N/N=C/c1cccc(Oc2ccccc2)c1)c1ccccc1Br — higher, 6.92%
- O=C(Cc1c[nH]c2ccccc12)Nc1ccccc1N1CCOCC1 — higher, 6.09%
- COc1ccc(N2CN=C3SCC(=O)N3C2)cc1 — higher, 11.5%
- COc1ccc(/C=N/Nc2nc(Nc3ccccc3)nc(N3CCCC3)n2)cc1 — higher, 12.8%
- CCC(C)C(NC(=O)c1ccccc1NC(=O)c1ccc(C)cc1)C(=O)O (centres unmarked) — higher, 4.9%
- Cc1cc(NC(=O)CSCc2nc(-c3cccc(Cl)c3)oc2C)no1 — higher, 10.3%
- O=C(COc1ccc(S(=O)(=O)NC2CCCCC2)cc1Cl)NCC1CCCO1 (centres unmarked) — higher, -2.36%
- CC(=O)CSc1nnc(-c2ccc(S(=O)(=O)N3CCOCC3)cc2)n1C — higher, 17.6%
- C=CCSc1nnc(-c2c[nH]c3ccccc23)n1CCOC — higher, 4.36%
- COCCOC(=O)C1=C(C)NC(=S)NC1/C=C/c1ccccc1 (centres unmarked) — higher, 4.65%
- COc1ccc(OC)c(-c2cc(C(=O)N3CCN(c4ccccc4)CC3)no2)c1 — higher, -7.57%
- O=C(OCC(=O)N1CCN(S(=O)(=O)c2ccccc2)CC1)c1ccc([N+](=O)[O-])o1 — higher, -14.4%
